Laboratory results published in PubChem BioAssay (NCATS).
Where “and” joins values, the source holds several entries; their conditions need not be identical. Equal entries are not always repeated. The shares of active, inactive and inconclusive entries below differ from those in the screen. Where the call is inconclusive, the potency comes from a doubtful curve fit. Calls of active or inactive are those of the source. Calls come from the whole dose curve; as a rule, active = well fitted curve in the direction sought with a large enough effect; inconclusive = small, poorly fitted or top-dose-only effect, or another doubt; inactive = no such curve, though single readings can be large; an effect the other way counts as inactive or inconclusive. Bridge positions count the residues as written; N and C are the ends. Square brackets hold non-standard residues; d marks the D form. Residues, ends and D or L forms follow the SMILES beside them. Peptide text beside a SMILES is read from it. * marks the point of attachment. ξ: configuration not given here. Octanoyl(6-Me) = CCC(C)CCCCC(=O)*; ξThr(3R) = C[C@@H](O)C(N)C(=O)O; dDab = NCC[C@@H](N)C(=O)O; Dab = NCC[C@H](N)C(=O)O

assay: qHTS of pediatric cancer cell lines to identify multiple opportunities for drug repurposing: Primary screen for OHS-50 cells (AID 1347103); conditions: OHS-50 osteosarcoma viability, CellTiter-Glo luminescence, 48 h; series mostly up to 57.3 µM; note: nearly all actives have a fitted effect of over 40% in size
Outline: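 Cells (500-1,000/well) rested 5 h, then received compounds for 48 h; metabolically active cells were measured by CellTiter-Glo luminescence. Final concentrations spanned up to 46 µM (MIPE, 11-point) or 0.59 nM-46 µM (NPC, 8-point) in primary screens, 11-point in follow-ups.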
Potency is the fitted concentration of half-maximal effect; tags give direction and shape of the fitted curve.

Row | Compound | Potency
1 | O=C(CCc1ccc(O)cc1)c1c(O)cc(O)cc1O | active: 0.432 µM
2 | O=C(O)CCC1CCC(c2cc(F)ccc2F)(S(=O)(=O)c2ccc(Cl)cc2)CC1 (stereo not given) | inconclusive: 0.243 µM [cytotoxic, full curve]
3 | CC(C)=CC[C@@H](O)C1=CC(=O)c2c(O)ccc(O)c2C1=O | active: 10.9 µM
4 | COC1CCC(N(C(=O)C2CCC(C)CC2)c2cc(C3=CCCCC3)sc2C(=O)O)CC1 (stereo not given) | inactive
5 | Nc1ncnc2nc(-c3ccc(N4CCOCC4)nc3)cc(-c3cccc(Br)c3)c12 | inconclusive: 17.2 µM [cytotoxic, partial curve]
6 | COc1cc(F)c(F)c(Nc2ccc(I)cc2F)c1NS(=O)(=O)C1(C[C@H](O)CO)CC1 | inconclusive: 19.3 µM [cytotoxic, partial curve]
7 | C[C@]1(c2nc3c(C(N)=O)cccc3[nH]2)CCCN1 | inconclusive: 27.3 µM [cytotoxic, partial curve]
8 | COc1cc2nc(N3CCN(C(=O)c4ccco4)CC3)nc(N)c2cc1OC | inconclusive: 19 µM [cytotoxic, single point] and inconclusive: 48.5 µM [cytotoxic, single point]
9 | CCC(C)CCCCC(=O)N[C@@H](CCN)C(=O)NC(C(=O)N[C@H](CCN)C(=O)N[C@@H]1CCNC(=O)C([C@@H](C)O)NC(=O)[C@@H](CCN)NC(=O)[C@@H](CCN)NC(=O)[C@@H](CC(C)C)NC(=O)[C@H](Cc2ccccc2)NC(=O)[C@H](CCN)NC1=O)[C@@H](C)O (stereo partly drawn) ({Octanoyl(6-Me)}-[Dab][ξThr(3R)][dDab][dDab][Dab]F[dL][dDab][dDab][ξThr(3R)]; lactam 4-C) | inactive
10 | OC(c1cc(C(F)(F)F)nc2c(C(F)(F)F)cccc12)C1CCCCN1 (stereo not given) | inconclusive: 34.3 µM [cytotoxic, single point]
11 | CC(C)C[C@H](CC(=O)O)C(=O)N[C@@H](Cc1c[nH]c2ccccc12)C(=O)N[C@@H](C)c1ccccc1 | inconclusive: 6.85 µM [cytotoxic, partial curve]
12 | COC(=O)[C@H](Cc1ccccc1)NC(=O)[C@@H](N)CC(=O)O (H-Asp-Phe-OMe) | inactive

assay: qHTS of pediatric cancer cell lines to identify multiple opportunities for drug repurposing: Primary screen for RD cells (AID 1347104); conditions: RD rhabdomyosarcoma viability, CellTiter-Glo luminescence, 48 h; series mostly up to 46 µM; note: nearly all actives have a fitted effect of over 55% in size
Outline: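 Following a 5-hour attachment period, cells at 500-1,000/well received compounds and were cultured for 48 hours. CellTiter-Glo was added and luminescence read to estimate viable, metabolically active cells.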

Row | Compound | Potency
13 | CC(CCc1ccc(O)cc1)NCCc1ccc(O)c(O)c1 (stereo not given) | inconclusive: 18.7 µM [cytotoxic, partial curve] and inconclusive: 29.9 µM [cytotoxic, single point]
14 | Cc1cc2c(cc1C1(c3ccc(C(=O)O)cn3)CC1)C(C)(C)CCC2(C)C | inconclusive: 37.2 µM [cytotoxic, single point]
15 | CN1C(=O)C[C@H](C(=O)N[C@@H](Cc2cnc[nH]2)C(=O)N2CCC[C@@H]2C(N)=O)NC1=O | inconclusive: 18.7 µM [cytotoxic, partial curve, poor fit]
16 | NC(=O)c1nnn(Cc2cc(Cl)c(C(=O)c3ccc(Cl)cc3)c(Cl)c2)c1N | inconclusive: 33.2 µM [cytotoxic, single point]
17 | NS(=O)(=O)c1ccc(NC2=CC(=O)c3ccccc3C2=O)cc1 | inconclusive: 1.32 µM [cytotoxic, full curve]
18 | O=C(C1CC1)N1CC[C@@H](Cn2c(-c3ccc(-c4ccc5occc5c4)cc3)nc3cnccc32)C1 | inactive
19 | Clc1cc(Cl)cc(CNc2ncncc2-c2ccc3c(c2)OCO3)c1 | inconclusive: 33.2 µM [cytotoxic, single point]
20 | COc1ccc(-c2oc3c(CC=C(C)C)c(OC4O[C@H](CO)[C@@H](O)[C@H](O)[C@@H]4O)cc(O)c3c(=O)c2OC2O[C@@H](C)[C@H](O)[C@@H](O)[C@@H]2O)cc1 (stereo not given in full) | inconclusive: 29.6 µM [cytotoxic, single point]
21 | CCCCC(C=O)NC(=O)C(CC(C)C)NC(=O)OCc1ccccc1 (stereo not given) | inconclusive: 29.6 µM [cytotoxic, partial curve]
22 | COc1ccc2nc3cc(Cl)ccc3c(Nc3cc(CN4CCCC4)c(O)c(CN4CCCC4)c3)c2n1 | inconclusive: 33.2 µM [cytotoxic, single point]
23 | O=C(Nc1cc(Cl)cc2c1[nH]c1cnccc12)c1cccnc1 | inconclusive: 18.7 µM [cytotoxic, partial curve]
24 | CO[C@H]1C[C@@H]2CC[C@@H](C)[C@@](O)(O2)C(=O)C(=O)N2CCCC[C@@H]2C(=O)O[C@H]([C@@H](C)C[C@@H]2CC[C@H](O)[C@H](OC)C2)CC(=O)[C@H](C)C=C(C)[C@@H](O)[C@@H](OC)C(=O)[C@H](C)C[C@H](C)C=CC=CC=C1C | inactive
25 | O=C(CCc1ccc(O)cc1)c1c(O)cc(O)cc1O | inactive
26 | O=C(O)CCC1CCC(c2cc(F)ccc2F)(S(=O)(=O)c2ccc(Cl)cc2)CC1 (stereo not given) | active: 14.8 µM
27 | COC1CCC(N(C(=O)C2CCC(C)CC2)c2cc(C3=CCCCC3)sc2C(=O)O)CC1 (stereo not given) | inconclusive: 16.6 µM [cytotoxic, partial curve, poor fit]
28 | COc1ccccc1OCCNCC(O)COc1cccc2[nH]c3ccccc3c12 (stereo not given) | inconclusive: 26.6 µM [cytotoxic, single point]
29 | O=C(c1cncc(Br)c1)N1CCC(N2CCCC2)CC1 | inactive
30 | Nc1ncnc2nc(-c3ccc(N4CCOCC4)nc3)cc(-c3cccc(Br)c3)c12 | inconclusive: 33.2 µM [cytotoxic, partial curve, poor fit]
31 | COc1cc(F)c(F)c(Nc2ccc(I)cc2F)c1NS(=O)(=O)C1(C[C@H](O)CO)CC1 | inconclusive: 18.7 µM [cytotoxic, partial curve]
32 | Cc1onc(-c2ccccc2)c1C(=O)N[C@@H]1C(=O)N2[C@@H](C(=O)O)C(C)(C)S[C@@H]12 | inconclusive: 2.09 µM [cytotoxic, partial curve, poor fit]
33 | C[C@]1(c2nc3c(C(N)=O)cccc3[nH]2)CCCN1 | inconclusive: 18.7 µM [cytotoxic, partial curve]
34 | COc1cc2nc(N3CCN(C(=O)c4ccco4)CC3)nc(N)c2cc1OC | inconclusive: 11.6 µM [cytotoxic, partial curve] and active: 29.6 µM
35 | OC(c1cc(C(F)(F)F)nc2c(C(F)(F)F)cccc12)C1CCCCN1 (stereo not given) | inconclusive: 37.2 µM [cytotoxic, single point]
